# Test results taken from PubChem BioAssay AID686979 (National Center for Advancing Translational Sciences (NCATS), 2013).
# The campaign covered roughly 420,000 compounds. About 50,000 (12%) were called active. The shares of active, inactive and inconclusive entries below differ from those in the screen. Calls follow the shape of the dose curve; as a rule, active = well fitted inhibition curve with a large enough effect; inconclusive = small, poorly fitted or top-dose-only effect; inactive = flat fitted curve, though single readings scatter. Potencies of inconclusive entries are left out as doubtful fits.
# Test: qHTS for Inhibitors of human tyrosyl-DNA phosphodiesterase 1 (TDP1): qHTS in cells in presence of CPT; also: nearly all actives have a fitted effect of over 55% in size
# Conditions: chicken DT40 Tdp1-/-;hTDP1 cells + 20 nM CPT, ATP luminescence, 48 h; activity change, negative = growth inhibition: at 46.2 µM (top of the series) unless noted
# In short: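 Chicken DT40 Tdp1-/- cells complemented with human TDP1, 400 cells/well, exposed to compounds plus 20 nM camptothecin for at least 48 h at 37 C; viability read as ATP content by CellTiter-Glo luminescence.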
# % is scaled to controls: 0 for no effect and ±100 for the full control effect; potency is read from the fitted curve at half-maximal effect; tags tell the direction and shape of the fitted curve.
Structure (SMILES),"activity change, negative = growth inhibition",Potency
O=C(O)c1cccc(S(=O)(=O)N2CCOCC2)c1,inactive: -23.3%,–
COc1ccc(CN(C)C(=O)c2ccc(Cl)c(S(=O)(=O)NCc3cccnc3)c2)cc1F,–,"inconclusive [inhibitor, single point]"
Cc1cc(C)c2cc(C(=O)Nc3ccc(C)c(F)c3)[nH]c2c1,–,"inconclusive [inhibitor, single point]"
O=C1/C(=C/c2ccncc2)CCC/C1=C\c1ccncc1,–,active: 2.06 µM
Cc1cc(C(=O)N2CCCC(CO)(Cc3ccc(F)cc3)C2)c(C)o1 (stereo unspecified),–,active: 23.1 µM
CC1=NN(c2nc(-c3ccc(C)cc3)cs2)C(=O)C1N=Nc1ccc2ccccc2c1 (stereo unspecified),–,"inconclusive [inhibitor, partial curve]"
COc1cc(CN2CC(=O)N(c3ccc(C)c(C)c3)C2=S)cc(OC)c1OC,–,"inconclusive [inhibitor, single point]"
CCc1ccc(/C=N/Nc2ncnc3nc[nH]c23)cc1,–,"inconclusive [inhibitor, full curve, poor fit]"
Cc1ccc(CCNC(c2ccc(F)cc2)c2nnc(-c3ccccc3Cl)o2)cc1 (stereo unspecified),–,"inconclusive [inhibitor, single point]"
O=C(CN1CCOCC1)Nc1ccc2c(c1)OCO2,–,"inconclusive [inhibitor, single point]"
CCc1nnc(NC(=O)c2ccc3nc(CC)c(CC)nc3c2)s1,inactive: 1.71%,–
Cc1ccc2nc3c(c(N)c2c1)CCN3c1ccccc1,–,active: 16.4 µM
COc1ccc(C(C)(NC(C)=O)c2nc(-c3cnc4ccccc4c3)cs2)cc1 (stereo unspecified),–,"inconclusive [inhibitor, single point]"
CCn1c(C(=O)N2CCC(C(=O)N3CCN(c4cc(C)ccc4C)CC3)CC2)cc2sccc21,–,active: 23.1 µM
COc1ccc(CNC(=O)c2ccc3nc(CCc4ccccc4)oc3c2)cc1OC,–,active: 18.4 µM
Cc1ccc(SCCNC(=S)Nc2cc(C)ccc2C)cc1,–,"inconclusive [inhibitor, single point]"
O=C(Nc1c(F)cc(F)cc1Br)c1ccco1,inactive: 10.9%,–
CC1(c2nnc(-c3ccccc3)o2)CC(c2cccnc2)=NO1 (stereo unspecified),–,"inconclusive [inhibitor, single point]"
CCOc1ccc(CNC(=O)c2cccc(NC(=O)N3CCSc4ncccc43)c2)cc1,–,"inconclusive [inhibitor, single point]"
O=C(CSc1nc2cccc(F)c2c(=O)n1-c1ccccc1)Nc1ccc2c(c1)CCC2,–,"inconclusive [inhibitor, single point]"
CCn1c(C)nc2cc(C(=O)N/N=C/c3cccc(OC)c3O)ccc21,–,"inconclusive [inhibitor, single point]"
Cc1ccnc(NS(=O)(=O)c2ccc(NC(=O)CC(C)c3ccccc3)cc2)n1 (stereo unspecified),inactive: 1.48%,–
COc1cc2cc3c4c(cc(OC)c(OC)c4c2cc1OC)CCN3C,–,active: 10.6 µM

Structure (SMILES),"activity change, negative = growth inhibition",Potency
CC(=O)N1CCc2cc(S(=O)(=O)NC(CC(C)C)C(=O)Nc3ccc(C(C)C)cc3)ccc21 (stereo unspecified),–,"inconclusive [inhibitor, single point]"
Cn1cccc1CC(=O)N/N=C/C=C/c1ccco1,–,"inconclusive [inhibitor, single point]"
CC(C)Cn1cc(NC(=O)Nc2cccc(C(F)(F)F)c2)c2ccccc2c1=O,–,active: 20.6 µM
COc1ccc(-c2noc(C3CCCN(S(=O)(=O)c4cccc(Cl)c4)C3)n2)cc1OC (stereo unspecified),–,"inconclusive [inhibitor, single point]"
Cc1ccc(CC(CC(=O)O)C(=O)Nc2ccc(Cl)cc2)cc1 (stereo unspecified),inactive: 3.43%,–
CC(=O)Nc1ccc(S(=O)(=O)NCC2CC3CCC2C3)cc1 (stereo unspecified),–,"inconclusive [inhibitor, partial curve]"
Cc1nn(-c2ccccc2)c(N)c1N=Nc1ccccc1,–,"inconclusive [inhibitor, single point]"
COc1cccc2cc(-c3csc(CCn4nc(C)cc4C)n3)c(=O)oc12,–,"inconclusive [inhibitor, single point]"
CCN(Cc1ccncc1)C(=O)CSc1ccc2ccccc2c1,–,"inconclusive [inhibitor, partial curve]"
O=C(CN1CCC(O)(c2cccc(F)c2)CC1)NCCc1c[nH]c2ccccc12,–,"inconclusive [inhibitor, single point]"
Cc1nc(-c2ccccc2)sc1C(=O)Nc1ccc(S(N)(=O)=O)cc1,inactive: -24.7%,–
CCOC(=O)c1ccc(NC(=O)Cc2cccs2)cc1,–,"inconclusive [inhibitor, partial curve]"
COc1cc(S(=O)(=O)N(Cc2ccc(C)cc2)C2CCCCC2)ccc1-n1cnnn1,–,"inconclusive [inhibitor, single point]"
Cc1ccc(NC(=O)C2CC(=O)N(Cc3ccco3)C2)cc1 (stereo unspecified),inactive: 10.5%,–
Cc1cc(-c2ccc(C)c(S(=O)(=O)N3CCC(C)CC3)c2)on1,–,"inconclusive [inhibitor, single point]"
CCOC(=O)c1c(C)sc(-c2c(-c3ccc4c(c3)OCCO4)[nH]c3c2c(=O)n(C)c(=O)n3C)c1O,–,active: 18.4 µM
COc1ccc(C(=O)CSc2nnc(CNc3nc(-c4ccccc4)cs3)n2C)cc1,–,"inconclusive [inhibitor, single point]"
O=C(CSc1ccccn1)N1CCN(c2cccc(Cl)c2)CC1,–,"inconclusive [inhibitor, single point]"
O=C(O)/C=C\C(=O)Nc1ccccc1F,inactive: -13.8%,–
N#Cc1ccc(Cn2c(-c3ccc(F)cc3)noc2=O)cc1,inactive: -20.9%,–
CCN1CCN(c2ncnc3sc(C(=O)Nc4ccccc4F)c(C)c23)CC1,inactive: -9.75%,–
COc1ccc(-n2c(=O)c3ccccc3n(Cc3ccccc3F)c2=O)cc1OC,–,"inconclusive [inhibitor, single point]"
Cc1cc(C)nc(NNC2=CC(=[N+]3CCCC3)CCC2)n1,inactive: -20.7%,–
